Test results reported in PubChem BioAssay AID2675 (National Center for Advancing Translational Sciences (NCATS), 2010).
In all, about 280,000 compounds went through this assay and about 100 (0.036%) were called active. This list was built around the results that the source calls inconclusive (neither active nor inactive); the mix of calls is not that of the screen. Calls come from the whole dose curve; as a rule, active = well fitted inhibition curve with a large enough effect in the signal ratio, with a control signal flat (not every such curve was filed as active); inconclusive = small, poorly fitted or top-dose-only effect, or effect the other way, or a change in a side signal; inactive = no such curve, though single readings can be large or run the other way; the % refers to the signal ratio. Potencies of inconclusive entries are doubtful fits and often do not repeat. “Side channel” marks fits to a control or component signal instead of the main read-out.

Each compound was assayed against Muscleblind-like protein 1 (Homo sapiens) (UniProt Q9NR56) (assay: qHTS Assay for Inhibitors of MBNL1-poly(CUG) RNA binding). Conditions: TR-FRET MBNL1-His/biotin-(CUG)12 binding, 665/545 ratio; activity change, negative = inhibition: at 57.5 µM (top of the series).
Summary of the method: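 Ratiometric TR-FRET (665 over 545 nm, excitation 340 nm) tracks disruption of MBNL1-His/biotin-(CUG)12 complex after 60 min at room temperature, with compounds at 92 nM to 58 uM final.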
% is set by controls: 0 for no effect and ±100 for the full control effect; potency is the fitted concentration of half-maximal effect; tags give direction and shape of the fitted curve or compound fluorescence and quenching.

UniProt Q9NR56, sequence (Q9NR56 whole entry, looked up): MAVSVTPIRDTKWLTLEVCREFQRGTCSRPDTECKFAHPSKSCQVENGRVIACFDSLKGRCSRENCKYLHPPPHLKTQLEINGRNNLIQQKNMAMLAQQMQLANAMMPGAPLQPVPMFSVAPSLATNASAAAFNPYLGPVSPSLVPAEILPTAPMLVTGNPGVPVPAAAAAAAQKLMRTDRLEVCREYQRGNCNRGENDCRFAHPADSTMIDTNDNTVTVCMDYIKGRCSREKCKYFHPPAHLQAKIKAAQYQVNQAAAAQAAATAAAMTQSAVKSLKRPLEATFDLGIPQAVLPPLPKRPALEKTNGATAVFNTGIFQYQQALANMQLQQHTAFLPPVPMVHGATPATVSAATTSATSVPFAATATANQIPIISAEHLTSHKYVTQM

Question: With `CC(C)=CC(=O)Nc1nc2ccc([N+](=O)[O-])cc2s1` as the compound, how does the Potency read?
Answer: The Potency was inconclusive: 3.16 µM [quencher, side channel, full curve, poor fit].

Question: `CCOC(=O)N1CCN(C(=O)c2ccc(N3CC4CC(C3)c3cccc(=O)n3C4)c(NC(=O)c3ccc(F)cc3)c2)CC1` (configuration not stated) was tested. Which Potency did it give?
Answer: Its Potency is “inactive”.

Question: For `COc1ccc(-c2cc(C(F)(F)F)n3nc(C(=O)NCc4ccco4)cc3n2)cc1OC`, which Potency is on record?
Answer: Its Potency is inconclusive: 11.2 µM [quencher, side channel, partial curve].

Question: For `Cc1[nH]nc(N=CC2=C(O)CC(c3ccco3)CC2=O)c1-c1ccccc1` (configuration not stated), which Potency is on record?
Answer: The Potency was inconclusive: 35.5 µM [fluorescent, side channel, single point].

Question: `CCOc1ccc(CCNS(=O)(=O)c2ccc(-c3ccc(=O)[nH]n3)o2)cc1OCC` was tested. Which Potency did it give?
Answer: The Potency was inconclusive: 20 µM [quencher, side channel, single point].

Question: How did the Potency turn out when `Cc1[nH]c(-c2ccc(F)cc2)cc1C(=O)N1CCN(c2ccccc2)CC1` was run?
Answer: The Potency was “inactive”.

Question: `Cc1nn(C)c(C)c1S(=O)(=O)NCCc1ccc(Cl)cc1` was tested. Which Potency did it give?
Answer: The Potency was inconclusive: 8.91 µM [quencher, side channel, single point].

Question: Which Potency does the source give for `Brc1cc2c(cc1COc1ccc(-c3nn[nH]n3)cc1)OCO2` here?
Answer: Its Potency is inconclusive: 50.1 µM [inhibitor, single point].

Question: How did the Potency turn out when `NC(=O)c1ccc(NCCc2ccccc2)c([N+](=O)[O-])c1` was run?
Answer: The Potency was inconclusive: 15.8 µM [quencher, partial curve].

Question: How did the Potency turn out when `CCc1ccc(OCC(=O)N/N=C(\C)c2ccc3c(c2)OCCO3)cc1` was run?
Answer: Its Potency is inconclusive: 100 µM [inhibitor, partial curve, poor fit].

Question: How did the Potency turn out when `O=C(/C=C\Nc1ccc(S(=O)(=O)Nc2ncccn2)cc1)c1ccccc1` was run?
Answer: The Potency was inconclusive: 6.31 µM [quencher, side channel, single point].

Question: Which Potency does the source give for `O=C(NCCCc1ccccc1)C(=O)NCC1OCCN1S(=O)(=O)c1ccc(F)cc1` (configuration not stated) here?
Answer: The Potency was inconclusive: 15.8 µM [quencher, partial curve].

Question: Which Potency does the source give for `O=C(O)CC1S/C(=N\N=C/c2ccccc2O)N(c2ccc(O)cc2)C1=O` (configuration not stated) here?
Answer: Its Potency is inconclusive: 31.6 µM [quencher, side channel, single point].

Question: How did the Potency turn out when `O=C1CCCC(O)=C1N=Nc1ccc2c(c1)OCO2` was run?
Answer: The Potency was inconclusive: 11.2 µM [quencher, side channel, partial curve].

Question: Which Potency does the source give for `Cc1ccc2cc3cc(C(=O)N4CCN(C(=O)c5ccco5)CC4)sc3nc2c1` here?
Answer: Its Potency is inconclusive: 17.8 µM [quencher, side channel, partial curve].

Question: How did the Potency turn out when `COCCn1c(=N)c(S(=O)(=O)c2ccc(Br)cc2)cc2c(=O)n3ccccc3nc21` was run?
Answer: Its Potency is “inactive”.

Question: With `O=C(COC(=O)/C=C/c1ccc([N+](=O)[O-])cc1)NCc1ccccc1` as the compound, how does the Potency read?
Answer: Its Potency is inconclusive: 3.98 µM [quencher, side channel, partial curve].

Question: How did the Potency turn out when `COc1cc(/C=N/NC(=O)c2cccnc2)ccc1OC(=O)c1ccc([N+](=O)[O-])cc1` was run?
Answer: The Potency was inconclusive: 11.2 µM [quencher, side channel, partial curve].

Question: With `O=C(c1ccc2ccccc2c1)C1CCCN(C(=O)c2cccnc2)C1` (configuration not stated) as the compound, how does the Potency read?
Answer: Its Potency is inconclusive: 31.6 µM [quencher, side channel, partial curve].

Question: `CCCCC(CC)C(=O)Nc1cc([N+](=O)[O-])ccc1F` (configuration not stated) was tested. Which Potency did it give?
Answer: Its Potency is inconclusive: 22.4 µM [quencher, side channel, single point].

Question: With `CCOC(=O)C1CCCN(C2=NC(=O)/C(=C/c3ccc(OC)cc3)S2)C1` (configuration not stated) as the compound, how does the Potency read?
Answer: The Potency was inconclusive: 14.1 µM [quencher, side channel, partial curve].

Question: For `COc1cccc(/C=C2/Sc3ccc(C(=O)NCCN4CCCC4)cc3NC2=O)c1`, which Potency is on record?
Answer: Its Potency is inconclusive: 39.8 µM [quencher, side channel, single point].

Question: With `CCOC(=O)N1CCN(C(=O)Nc2ccc3nc(C)c(C)nc3c2)CC1` as the compound, how does the Potency read?
Answer: Its Potency is inconclusive: 17.8 µM [quencher, side channel, partial curve].

Question: For `Cc1cccc(NC(=O)CSc2cccc3cccnc23)c1`, which Potency is on record?
Answer: The Potency was “inactive”.

Question: For `Cc1cc(C)n2nc(C(=O)Nc3ccn(Cc4ccccc4C)n3)cc2n1`, which Potency is on record?
Answer: Its Potency is “inactive”.

Question: For `CN(C(=O)COC(=O)c1cc[n+]([O-])cc1)c1ccccc1`, which Potency is on record?
Answer: The Potency was inconclusive: 28.2 µM [quencher, side channel, partial curve].

Question: `CCCc1c(C(=O)N/N=C/c2cccnc2)nnn1-c1nonc1N` was tested. Which Potency did it give?
Answer: Its Potency is “inactive”.

Question: For `Cc1ccc(CSCC(=O)N2CCN(Cc3ccc4c(c3)OCO4)CC2)cc1`, which activity change, negative = inhibition is on record?
Answer: Its activity change, negative = inhibition is inconclusive: -7.43% [phenotype inactive].

Question: `C/C=C(\C)C(=O)Nc1cccc(C2=NOC3(C2)C[C@H](C(N)=O)N(C(=O)c2cc([N+](=O)[O-])cc([N+](=O)[O-])c2)C3)c1` (some centres not stated) was tested. Which Potency did it give?
Answer: The Potency was inconclusive: 8.91 µM [quencher, side channel, partial curve].

Question: Which Potency does the source give for `CCCCC(=O)Nc1nc2c(OC)cc([N+](=O)[O-])cc2s1` here?
Answer: Its Potency is inconclusive: 14.1 µM [quencher, side channel, partial curve].

Question: Which Potency does the source give for `CC(C)(C)c1csc(NC(=O)c2cccs2)n1` here?
Answer: The Potency was “inactive”.

Question: For `COc1ccc(/C=C2\SC(=O)N(CCC(=O)N3CCN(C)CC3)C2=O)cc1`, which Potency is on record?
Answer: Its Potency is inconclusive: 2.82 µM [quencher, side channel, full curve, poor fit].

Question: Which Potency does the source give for `Cc1cc(C)nc(N/N=C/c2ccccc2OCc2cccc(Br)c2)n1` here?
Answer: The Potency was “inactive”.

Question: `CCc1nnc(NC(=O)c2nc(S(=O)(=O)Cc3cccc(C)c3)ncc2Cl)s1` was tested. Which Potency did it give?
Answer: Its Potency is inconclusive: 31.6 µM [quencher, side channel, partial curve].

Question: Which Potency does the source give for `Cc1ccc2nc(NC(=O)CCCC(=O)O)sc2c1` here?
Answer: Its Potency is “inactive”.

Question: With `Cn1c(=O)n(C)c2cc(/C=N/NC(=O)c3ccc(Cl)cc3Cl)ccc21` as the compound, how does the Potency read?
Answer: Its Potency is inconclusive: 28.2 µM [quencher, side channel, single point].

Question: With `CCOc1cc(/C=C(\C#N)c2[nH]nc(N)c2C#N)ccc1O` as the compound, how does the Potency read?
Answer: The Potency was inconclusive: 28.2 µM [quencher, side channel, single point].

Question: For `COc1ccc(CNC(=O)/C=C/c2ccco2)cc1OC`, which Potency is on record?
Answer: The Potency was inconclusive: 31.6 µM [quencher, side channel, partial curve].

Question: How did the Potency turn out when `COc1ccccc1/C=N/NC(=O)CNC(=O)c1ccccc1` was run?
Answer: The Potency was “inactive”.

Question: How did the Potency turn out when `COc1ccc(C(=O)NCCC2=CCCCC2)cc1[N+](=O)[O-]` was run?
Answer: Its Potency is inconclusive: 15.8 µM [quencher, side channel, partial curve].

Question: `CC1(C)C=C2C(=NN(c3ccccc3)C(N)=C2C#N)CO1` was tested. Which Potency did it give?
Answer: Its Potency is inconclusive: 15.8 µM [quencher, side channel, partial curve].

Question: With `CN1CCCN(c2ccc([N+](=O)[O-])cc2)CC1` as the compound, how does the Potency read?
Answer: Its Potency is inconclusive: 17.8 µM [quencher, side channel, partial curve].

Question: How did the Potency turn out when `CCOC(=O)c1sc2nc(N3CCOCC3)c3c(c2c1N)CCN(Cc1ccccc1)C3` was run?
Answer: Its Potency is “inactive”.

Question: For `CCn1c(=O)cc(OCC(=O)O)c2ccccc21`, which Potency is on record?
Answer: The Potency was “inactive”.

Question: With `Cc1ccc2nc(Cl)c(/C=C/C(=O)c3ccco3)cc2c1` as the compound, how does the Potency read?
Answer: Its Potency is “inactive”.

Question: For `COc1ccc(CCNS(=O)(=O)c2ccc([N+](=O)[O-])cc2)cc1OC`, which Potency is on record?
Answer: The Potency was inconclusive: 15.8 µM [quencher, side channel, partial curve].

Question: How did the Potency turn out when `CN(CCc1cn[nH]c1)C(=O)C1CCC(=O)N(CC2CCCCC2)C1` (configuration not stated) was run?
Answer: Its Potency is inconclusive: 4.47 µM [quencher, side channel, full curve].

Question: Which Potency does the source give for `O=C(Nc1ccccc1F)c1ccco1` here?
Answer: Its Potency is inconclusive: 79.4 µM [inhibitor, single point].

Question: With `O=C(N/N=C/c1cccc(Oc2ccccc2)c1)c1ccc(O)cc1O` as the compound, how does the Potency read?
Answer: The Potency was “inactive”.

Question: How did the Potency turn out when `Cc1cc(Oc2cnn(C(C)(C)C)c(=O)c2Cl)cc(C(C)C)c1` was run?
Answer: Its Potency is inconclusive: 39.8 µM [inhibitor, single point].

Question: With `CCOC(=O)N/N=C/c1ccc(N2CCOCC2)s1` as the compound, how does the Potency read?
Answer: The Potency was inconclusive: 28.2 µM [quencher, side channel, partial curve].

Question: With `COC(=O)c1[nH]c2ccc(Cl)cc2c1NC(=O)CCN1CCN(C2CCCCC2)CC1` as the compound, how does the Potency read?
Answer: Its Potency is inconclusive: 3.98 µM [quencher, side channel, single point].

Question: Which Potency does the source give for `O=c1c(Br)c(N2CCOCC2)cnn1-c1ccccc1` here?
Answer: The Potency was inconclusive: 6.31 µM [quencher, side channel, full curve].

Question: `O=C(Nc1nc2ccccc2s1)C1CCCO1` (configuration not stated) was tested. Which Potency did it give?
Answer: The Potency was “inactive”.

Question: With `O=C1CC(c2cccc([N+](=O)[O-])c2)c2ccc3ccccc3c2N1` (configuration not stated) as the compound, how does the Potency read?
Answer: The Potency was inconclusive: 14.1 µM [quencher, side channel, partial curve].

Question: `CCc1nn(C(C)C(=O)NCCN2CCN(c3cccc(C)c3C)CC2)c(=O)c2cc3occc3n12` (configuration not stated) was tested. Which Potency did it give?
Answer: Its Potency is inconclusive: 39.8 µM [quencher, side channel, single point].

Question: `O=C(N/N=C/C(Cl)=C/c1ccccc1)c1ccco1` was tested. Which Potency did it give?
Answer: Its Potency is inconclusive: 22.4 µM [quencher, side channel, partial curve].

Question: `COCCCNC(=S)Nc1ccccc1[N+](=O)[O-]` was tested. Which Potency did it give?
Answer: Its Potency is inconclusive: 22.4 µM [quencher, side channel, partial curve].

Question: With `COc1cccc(/C=C/C(=O)c2cccc([N+](=O)[O-])c2)c1OC` as the compound, how does the Potency read?
Answer: The Potency was inconclusive: 25.1 µM [quencher, side channel, partial curve].

Question: For `O=S(=O)(c1ccc(Br)cc1)c1nc(-c2ccccc2)oc1NCc1cccnc1`, which Potency is on record?
Answer: The Potency was inconclusive: 39.8 µM [fluorescent, single point].

Question: How did the Potency turn out when `O=C(O)CC1(CC(=O)Nc2ccc3ccccc3c2)CCCCC1` was run?
Answer: Its Potency is “inactive”.

Question: Which Potency does the source give for `Cc1ccc(NCc2ccco2)cc1C` here?
Answer: Its Potency is “inactive”.
